Data: the supplement of paper PMC4604168 (melanoma cell lines)
The list shows a part of the results. Repeats are few or missing, and single values can be far off.

Tests used:
Experiment in all cases: cell count relative to DMSO control; melanoma cells; higher = more viable cells
Conditions in all cases: library dose: standard library concentration; 72 h
SkMel28 = test system: SkMel28
SkMel2 = test system: SkMel2
SkMel30 = test system: SkMel30
SkMel5 = test system: SkMel5
UACC257 = test system: UACC257
UACC62 = test system: UACC62
WM115 = test system: WM115
WM1716 = test system: WM1716
WM1745 = test system: WM1745
WM3526 = test system: WM3526
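Also: cells treated in 1,536-well plates, then fixed and DAPI-stained, with nuclei counted from automated high-throughput microscope images.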

CC1(C)CCC(c2ccc(Cl)cc2)=C(CN2CCN(c3ccc(C(=O)NS(=O)(=O)c4ccc(N[C@H](CCN5CCOCC5)CSc5ccccc5)c(S(=O)(=O)C(F)(F)F)c4)cc3)CC2)C1 + CS(=O)(=O)CCNCc1ccc(-c2ccc3ncnc(Nc4ccc(OCc5cccc(F)c5)c(Cl)c4)c3c2)o1 [lapatinib] (first compound 2 µM, partner dose 4 µM)
cell count (SkMel28): 43.2%
cell count (SkMel2): 58.2%
cell count (SkMel30): 63.9%
cell count (SkMel5): 50.9%
cell count (UACC257): 37.4%
cell count (UACC62): 19.3%
cell count (WM115): 53.5%
cell count (WM1716): 48.4%
cell count (WM1745): 6.42%
cell count (WM3526): 66.3%

Cc1ccc(Nc2nccc(N(C)c3ccc4c(C)n(C)nc4c3)n2)cc1S(N)(=O)=O [Pazopanib] + CC(C)(C)c1cnc(CSc2cnc(NC(=O)C3CCNCC3)s2)o1 [SNS-032] (first compound 2 µM, partner dose 0.05 µM)
cell count (SkMel28): 63.8%
cell count (SkMel2): 70.2%
cell count (SkMel30): 71.3%
cell count (SkMel5): 55.1%
cell count (UACC257): 81.2%
cell count (UACC62): 51.4%
cell count (WM115): 82.7%
cell count (WM1716): 75%
cell count (WM1745): 83.5%
cell count (WM3526): 94.2%

O=C(/C=C/c1cccnc1)NCCCCC1CCN(C(=O)c2ccccc2)CC1 + Cc1cc(N2CCOCC2)cc2[nH]c(-c3c(NC[C@@H](O)c4cccc(Cl)c4)cc[nH]c3=O)nc12 [BMS536924] (first compound 0.05 µM, partner dose 1 µM)
cell count (SkMel28): 102%
cell count (SkMel2): 15%
cell count (SkMel30): 76.7%
cell count (SkMel5): 82%
cell count (UACC257): 93.2%
cell count (UACC62): 95.2%
cell count (WM115): 99%
cell count (WM1716): 75.8%
cell count (WM1745): 49.9%
cell count (WM3526): 66.2%

Cc1ccc(Nc2nccc(N(C)c3ccc4c(C)n(C)nc4c3)n2)cc1S(N)(=O)=O [Pazopanib] + CC(C)C[C@H](NC(=O)[C@H](Cc1ccccc1)NC(=O)c1cnccn1)B(O)O [Bortezomib] (first compound 2 µM, partner dose 0.005 µM)
cell count (SkMel28): 20.6%
cell count (SkMel2): 34%
cell count (SkMel30): 35.5%
cell count (SkMel5): 24.8%
cell count (UACC257): 95%
cell count (UACC62): 39.1%
cell count (WM115): 19.7%
cell count (WM1716): 11.5%
cell count (WM1745): 17.6%
cell count (WM3526): 23.6%

Cc1ccc(Nc2nccc(N(C)c3ccc4c(C)n(C)nc4c3)n2)cc1S(N)(=O)=O [Pazopanib] + O=C(CCCCCCC(=O)Nc1ccccc1)NO [vorinostat] (first compound 2 µM, partner dose 0.4 µM)
cell count (SkMel28): 44.6%
cell count (SkMel2): 69%
cell count (SkMel30): 77.4%
cell count (SkMel5): 65.8%
cell count (UACC257): 73.9%
cell count (UACC62): 60.3%
cell count (WM115): 64.3%
cell count (WM1716): 81.6%
cell count (WM1745): 71.8%
cell count (WM3526): 77.7%

O=C(/C=C/c1cccnc1)NCCCCC1CCN(C(=O)c2ccccc2)CC1 + CCCS(=O)(=O)Nc1ccc(F)c(C(=O)c2c[nH]c3ncc(Cl)cc23)c1F [PLX4720] (first compound 0.05 µM, partner dose 0.4 µM)
cell count (SkMel28): 54.7%
cell count (SkMel2): 16.9%
cell count (SkMel30): 95.4%
cell count (SkMel5): 81.4%
cell count (UACC257): 97.3%
cell count (UACC62): 64.5%
cell count (WM115): 86.9%
cell count (WM1716): 72.9%
cell count (WM1745): 74.2%
cell count (WM3526): 73.3%

CC1(C)CCC(c2ccc(Cl)cc2)=C(CN2CCN(c3ccc(C(=O)NS(=O)(=O)c4ccc(N[C@H](CCN5CCOCC5)CSc5ccccc5)c(S(=O)(=O)C(F)(F)F)c4)cc3)CC2)C1 + C[C@@H](N)c1ccc(C(=O)Nc2ccnc3[nH]ccc23)cc1 [RKI983] (first compound 2 µM, partner dose 2 µM)
cell count (SkMel28): 51.8%
cell count (SkMel2): 84.1%
cell count (SkMel30): 67.7%
cell count (SkMel5): 60.5%
cell count (UACC257): 27.1%
cell count (UACC62): 32.9%
cell count (WM115): 85.7%
cell count (WM1716): 36.9%
cell count (WM1745): 3.79%
cell count (WM3526): 94.7%

CC1(C)CCC(c2ccc(Cl)cc2)=C(CN2CCN(c3ccc(C(=O)NS(=O)(=O)c4ccc(N[C@H](CCN5CCOCC5)CSc5ccccc5)c(S(=O)(=O)C(F)(F)F)c4)cc3)CC2)C1 + NC1(c2ccc(-c3nc4ccn5c(=O)[nH]nc5c4cc3-c3ccccc3)cc2)CCC1 [MK2206] (first compound 2 µM, partner dose 2 µM)
cell count (SkMel28): 63.8%
cell count (SkMel2): 65.1%
cell count (SkMel30): 64.6%
cell count (SkMel5): 65.7%
cell count (UACC257): 39.1%
cell count (UACC62): 58.8%
cell count (WM115): 30.2%
cell count (WM1716): 47%
cell count (WM1745): 5.72%
cell count (WM3526): 67.7%

CC1(C)CCC(c2ccc(Cl)cc2)=C(CN2CCN(c3ccc(C(=O)NS(=O)(=O)c4ccc(N[C@H](CCN5CCOCC5)CSc5ccccc5)c(S(=O)(=O)C(F)(F)F)c4)cc3)CC2)C1 + C[C@]1(c2nc3c(C(N)=O)cccc3[nH]2)CCCN1 [Veliparib] (first compound 2 µM, partner dose 7 µM)
cell count (SkMel28): 63.4%
cell count (SkMel2): 71.6%
cell count (SkMel30): 70.7%
cell count (SkMel5): 78.3%
cell count (UACC257): 41.4%
cell count (UACC62): 54.9%
cell count (WM115): 55.6%
cell count (WM1716): 58.9%
cell count (WM1745): 1.72%
cell count (WM3526): 78.3%

O=C(/C=C/c1cccnc1)NCCCCC1CCN(C(=O)c2ccccc2)CC1 + C=CCNC1=C2C[C@@H](C)C[C@H](OC)[C@H](O)[C@@H](C)/C=C(\C)[C@H](OC(N)=O)[C@@H](OC)/C=C\C=C(/C)C(=O)NC(=CC1=O)C2=O [Tanespimycin] (first compound 0.05 µM, partner dose 0.01 µM)
cell count (SkMel28): 59.7%
cell count (SkMel2): 23.7%
cell count (SkMel30): 87.7%
cell count (SkMel5): 52.5%
cell count (UACC257): 85.6%
cell count (UACC62): 49.9%
cell count (WM115): 29.1%
cell count (WM1716): 68.3%
cell count (WM1745): 63.6%
cell count (WM3526): 65.4%

CC1(C)CCC(c2ccc(Cl)cc2)=C(CN2CCN(c3ccc(C(=O)NS(=O)(=O)c4ccc(N[C@H](CCN5CCOCC5)CSc5ccccc5)c(S(=O)(=O)C(F)(F)F)c4)cc3)CC2)C1 + O=C(CCCCCCC(=O)Nc1ccccc1)NO [vorinostat] (first compound 2 µM, partner dose 0.4 µM)
cell count (SkMel28): 43.1%
cell count (SkMel2): 51.9%
cell count (SkMel30): 58.5%
cell count (SkMel5): 64.6%
cell count (UACC257): 36.6%
cell count (UACC62): 66.2%
cell count (WM115): 82.1%
cell count (WM1716): 62%
cell count (WM1745): 4.29%
cell count (WM3526): 55.3%

O=C(/C=C/c1cccnc1)NCCCCC1CCN(C(=O)c2ccccc2)CC1 + NC(=O)Nc1cc(-c2cccc(F)c2)sc1C(=O)N[C@H]1CCCNC1 [AZD7762] (first compound 0.05 µM, partner dose 0.1 µM)
cell count (SkMel28): 36.4%
cell count (SkMel2): 13.6%
cell count (SkMel30): 102%
cell count (SkMel5): 95.3%
cell count (UACC257): 101%
cell count (UACC62): 62.7%
cell count (WM115): 76.9%
cell count (WM1716): 78.2%
cell count (WM1745): 94.3%
cell count (WM3526): 47.7%

Cc1ccc(Nc2nccc(N(C)c3ccc4c(C)n(C)nc4c3)n2)cc1S(N)(=O)=O [Pazopanib] + O=C(Nc1cccc(Cl)c1)Nc1ncc(CCNc2ncnc3ccsc23)s1 [SNS314] (first compound 2 µM, partner dose 0.004 µM)
cell count (SkMel28): 41.6%
cell count (SkMel2): 86.2%
cell count (SkMel30): 84.7%
cell count (SkMel5): 65.2%
cell count (UACC257): 62.6%
cell count (UACC62): 52%
cell count (WM115): 38.6%
cell count (WM1716): 54.6%
cell count (WM1745): 52%
cell count (WM3526): 66.8%

Cc1ccc(Nc2nccc(N(C)c3ccc4c(C)n(C)nc4c3)n2)cc1S(N)(=O)=O [Pazopanib] + NC(=O)Nc1cc(-c2cccc(F)c2)sc1C(=O)N[C@H]1CCCNC1 [AZD7762] (first compound 2 µM, partner dose 0.1 µM)
cell count (SkMel28): 67.6%
cell count (SkMel2): 97.4%
cell count (SkMel30): 90.9%
cell count (SkMel5): 76.2%
cell count (UACC257): 112%
cell count (UACC62): 72.9%
cell count (WM115): 75.5%
cell count (WM1716): 80%
cell count (WM1745): 65.9%
cell count (WM3526): 68.5%

O=C(/C=C/c1cccnc1)NCCCCC1CCN(C(=O)c2ccccc2)CC1 + Cn1sc(=O)n(Cc2ccccc2)c1=O [TDZD-8] (first compound 0.05 µM, partner dose 2 µM)
cell count (SkMel28): 74.5%
cell count (SkMel2): 18.3%
cell count (SkMel30): 81.9%
cell count (SkMel5): 99.6%
cell count (UACC257): 95.4%
cell count (UACC62): 93%
cell count (WM115): 86.1%
cell count (WM1716): 66.6%
cell count (WM1745): 88.6%
cell count (WM3526): 87%

CC1(C)CCC(c2ccc(Cl)cc2)=C(CN2CCN(c3ccc(C(=O)NS(=O)(=O)c4ccc(N[C@H](CCN5CCOCC5)CSc5ccccc5)c(S(=O)(=O)C(F)(F)F)c4)cc3)CC2)C1 + Cc1cn(-c2cc(NC(=O)c3ccc(C)c(Nc4nccc(-c5cccnc5)n4)c3)cc(C(F)(F)F)c2)cn1 [nilotinib] (first compound 2 µM, partner dose 1 µM)
cell count (SkMel28): 66.5%
cell count (SkMel2): 73.9%
cell count (SkMel30): 79.6%
cell count (SkMel5): 65.3%
cell count (UACC257): 37.4%
cell count (UACC62): 72.6%
cell count (WM115): 74.8%
cell count (WM1716): 54%
cell count (WM1745): 1.16%
cell count (WM3526): 82.1%

Cc1ccc(Nc2nccc(N(C)c3ccc4c(C)n(C)nc4c3)n2)cc1S(N)(=O)=O [Pazopanib] + CN(NC(=O)CC(=O)NN(C)C(=S)c1ccccc1)C(=S)c1ccccc1 [STA4783] (first compound 2 µM, partner dose 0.03 µM)
cell count (SkMel28): 37%
cell count (SkMel2): 78.1%
cell count (SkMel30): 92.2%
cell count (SkMel5): 65.9%
cell count (UACC257): 90%
cell count (UACC62): 67.5%
cell count (WM115): 26.5%
cell count (WM1716): 64.2%
cell count (WM1745): 48.3%
cell count (WM3526): 90.9%

O=C(/C=C/c1cccnc1)NCCCCC1CCN(C(=O)c2ccccc2)CC1 + Nc1cccc2c1CN(C1CCC(=O)NC1=O)C2=O [lenalidomide] (first compound 0.05 µM, partner dose 5 µM)
cell count (SkMel28): 80.5%
cell count (SkMel2): 17.6%
cell count (SkMel30): 103%
cell count (SkMel5): 90.2%
cell count (UACC257): 96.3%
cell count (UACC62): 64.5%
cell count (WM115): 91.7%
cell count (WM1716): 75.6%
cell count (WM1745): 72.1%
cell count (WM3526): 105%

CC1(C)CCC(c2ccc(Cl)cc2)=C(CN2CCN(c3ccc(C(=O)NS(=O)(=O)c4ccc(N[C@H](CCN5CCOCC5)CSc5ccccc5)c(S(=O)(=O)C(F)(F)F)c4)cc3)CC2)C1 + CO[C@@H]1[C@H](N(C)C(=O)c2ccccc2)C[C@H]2O[C@]1(C)n1c3ccccc3c3c4c(c5c6ccccc6n2c5c31)C(=O)NC4 [Midostaurin] (first compound 2 µM, partner dose 0.4 µM)
cell count (SkMel28): 24.9%
cell count (SkMel2): 27.2%
cell count (SkMel30): 42.1%
cell count (SkMel5): 40.4%
cell count (UACC257): 31.8%
cell count (UACC62): 44.4%
cell count (WM115): 20.5%
cell count (WM1716): 16.1%
cell count (WM1745): 1.62%
cell count (WM3526): 42.2%
